Assay results taken from publication PMC4336329 (PLoS ONE, 2015).
The campaign covered roughly 310,000 compounds. About 14,000 (4.5%) showed an effect of 50% or more. The effect is printed as a negative number. The list shows a part of the results.

biological target: human ether-à-go-go-related gene (hERG) potassium channel (human, UniProt Q12809); test: primary screen, population patch clamp on CHO cells stably expressing hERG
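Further: peak tail current of the secondary pulse compared with the same well before compound.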

Sequence of human ether-à-go-go-related gene (hERG) potassium channel (Q12809 whole entry, looked up): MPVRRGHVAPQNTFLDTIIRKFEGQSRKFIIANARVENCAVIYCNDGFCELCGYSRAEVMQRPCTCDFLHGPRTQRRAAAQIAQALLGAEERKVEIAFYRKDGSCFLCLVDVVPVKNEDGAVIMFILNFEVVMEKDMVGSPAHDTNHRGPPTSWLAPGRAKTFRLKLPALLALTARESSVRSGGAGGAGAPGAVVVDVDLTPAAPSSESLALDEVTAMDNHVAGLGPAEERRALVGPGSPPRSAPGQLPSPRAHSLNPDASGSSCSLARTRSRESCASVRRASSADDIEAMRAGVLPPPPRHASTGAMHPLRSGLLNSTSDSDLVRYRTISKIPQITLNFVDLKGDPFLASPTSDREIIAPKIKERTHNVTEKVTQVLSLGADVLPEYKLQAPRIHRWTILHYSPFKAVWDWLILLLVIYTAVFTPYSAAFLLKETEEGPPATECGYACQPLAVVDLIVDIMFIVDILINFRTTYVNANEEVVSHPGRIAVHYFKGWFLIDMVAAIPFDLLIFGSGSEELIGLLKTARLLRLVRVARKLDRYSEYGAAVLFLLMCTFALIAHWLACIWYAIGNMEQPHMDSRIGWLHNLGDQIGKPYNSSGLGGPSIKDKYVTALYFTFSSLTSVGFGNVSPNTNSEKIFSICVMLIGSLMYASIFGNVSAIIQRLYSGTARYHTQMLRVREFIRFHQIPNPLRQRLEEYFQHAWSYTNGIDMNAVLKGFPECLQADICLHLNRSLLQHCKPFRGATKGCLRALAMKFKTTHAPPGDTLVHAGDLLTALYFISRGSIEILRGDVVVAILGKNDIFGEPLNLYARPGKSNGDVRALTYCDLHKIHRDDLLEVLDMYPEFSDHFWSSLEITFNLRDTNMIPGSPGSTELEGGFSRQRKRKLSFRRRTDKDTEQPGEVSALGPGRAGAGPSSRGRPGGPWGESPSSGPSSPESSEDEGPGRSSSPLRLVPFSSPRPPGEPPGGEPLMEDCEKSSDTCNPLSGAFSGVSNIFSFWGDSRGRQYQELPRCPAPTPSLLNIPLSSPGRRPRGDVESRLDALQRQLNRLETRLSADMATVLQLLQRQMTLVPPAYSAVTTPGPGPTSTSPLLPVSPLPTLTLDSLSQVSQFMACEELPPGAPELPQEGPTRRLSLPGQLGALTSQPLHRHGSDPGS

Going from `COc1ccccc1-c1cc(C(F)(F)F)c(C#N)c(=O)[nH]1` to `COc1ccc(CCN(C)C(=O)CCNS(=O)(=O)c2ccccc2C(F)(F)F)cc1OC`, the “hERG current change (%, negative = inhibition) at 10uM” value rises from 8.97% to 9.73%.

Compared with `CSCCC(NC(=O)c1ccccc1Br)C(=O)N1CCC(C)CC1` (stereo not shown), `COc1ccc(CN(C(=O)c2ccccc2Br)C2CCS(=O)(=O)C2)cc1` (stereo not shown) is lower in “hERG current change (%, negative = inhibition) at 10uM” value: 16.6% for the first, -6.5% for the second.

First: Cc1nc(C(=O)NC2CCCCC2)sc1C1(C)CC(c2cccnc2)=NO1 (stereo not shown)
Second: COC(=O)C1=C(c2cc3ccccc3s2)C[C@@H]2CC[C@H]1N2C(=O)NC1CCCCC1
The “hERG current change (%, negative = inhibition) at 10uM” value of the first is higher: 2.76% for the first, -23.4% for the second.

Compared with `COc1cc(CNCCCN2CCOCC2)ccc1OCC(=O)Nc1cccc(C(F)(F)F)c1.Cl`, `COc1ccc(-c2cc(C(F)(F)F)nc(SCC(=O)Nc3ccc4c(c3)OCO4)n2)cc1OC` is higher in “hERG current change (%, negative = inhibition) at 10uM” value: -56.6% for the first, -9.52% for the second.

First: CCOc1ccc(N(C)C(=O)CCc2nnc3ccc(N4CCOCC4)nn23)cc1
Second: Cc1ccc2nc3ccc(N4CCCCCCC4)nn3c(=O)c2c1
The “hERG current change (%, negative = inhibition) at 10uM” value of the first is higher: 19% for the first, -18.1% for the second.

First: O=C(CSc1nc2ncccc2[nH]1)Nc1ccc2c(c1)OCCO2
Second: CCc1cc2cc(C(=O)Nc3ccc(F)cc3)sc2s1
The “hERG current change (%, negative = inhibition) at 10uM” value of the first is lower: 2.63% for the first, 3.32% for the second.

Compared with `CCOc1ccccc1NC(=O)CCS(=O)(=O)c1ccc2c(c1)CCN2C(C)=O`, `COC(=O)c1ccccc1NC(=O)Cn1c(SC)c(F)cnc1=O` is lower in “hERG current change (%, negative = inhibition) at 10uM” value: 17.8% for the first, -0.0708% for the second.

Compared with `COc1cc2[nH]c3c(N4CCN(c5ccccn5)CC4)ncnc3c2cc1OC`, `CCCOc1c(Br)cc(C2C3=C(CCCC3=O)N(CC)C3=C2C(=O)CCC3)cc1OC` is lower in “hERG current change (%, negative = inhibition) at 10uM” value: 13.1% for the first, -33.6% for the second.

First: CC(C)CCn1c(O)c(N=NC(=O)c2ccco2)c2ccccc21
Second: Cc1nn(C)c(NC(=O)c2ccc(Cl)cc2)c1Cl
The “hERG current change (%, negative = inhibition) at 10uM” value of the first is lower: 4.25% for the first, 14.8% for the second.

Compared with `CCNC(=S)N/N=C/c1cccc(C)c1`, `O=C(Cn1cncn1)N/N=C/c1ccccc1O` is lower in “hERG current change (%, negative = inhibition) at 10uM” value: 15.6% for the first, 6.77% for the second.

Going from `CCOCCc1nn2c(=O)cc(CSCC(=O)Nc3ccccc3)nc2s1` to `O=C1OC(/C=C/c2ccccc2)=NC/1=C\c1cccnc1`, the “hERG current change (%, negative = inhibition) at 10uM” value rises from 1.66% to 19.4%.

Going from `COc1cc2ccc(=O)oc2c(O)c1OCC=C(C)C` to `Cc1ccc(-n2nc3c(c2NC(=O)C2CC2)CS(=O)(=O)C3)cc1C`, the “hERG current change (%, negative = inhibition) at 10uM” value falls from -0.468% to -11.2%.

With `CC(C)CNC(=O)C(=O)NCCC1CCCCN1S(=O)(=O)c1cccs1` (stereo not shown) the “hERG current change (%, negative = inhibition) at 10uM” value was -19%.
